Here are results for 56 compounds from article PMC4336329 (PLoS ONE, 2015).

Screen size: about 310,000 compounds; about 2,200 (0.71%) showed an effect of 50% or more. The effect is printed as a negative number. The list shows a part of the results.

This test deals with human ether-à-go-go-related gene (hERG) potassium channel (human, UniProt Q12809). Kind of test: primary screen, population patch clamp on CHO cells stably expressing hERG.
Chain of human ether-à-go-go-related gene (hERG) potassium channel (Q12809 whole entry, looked up): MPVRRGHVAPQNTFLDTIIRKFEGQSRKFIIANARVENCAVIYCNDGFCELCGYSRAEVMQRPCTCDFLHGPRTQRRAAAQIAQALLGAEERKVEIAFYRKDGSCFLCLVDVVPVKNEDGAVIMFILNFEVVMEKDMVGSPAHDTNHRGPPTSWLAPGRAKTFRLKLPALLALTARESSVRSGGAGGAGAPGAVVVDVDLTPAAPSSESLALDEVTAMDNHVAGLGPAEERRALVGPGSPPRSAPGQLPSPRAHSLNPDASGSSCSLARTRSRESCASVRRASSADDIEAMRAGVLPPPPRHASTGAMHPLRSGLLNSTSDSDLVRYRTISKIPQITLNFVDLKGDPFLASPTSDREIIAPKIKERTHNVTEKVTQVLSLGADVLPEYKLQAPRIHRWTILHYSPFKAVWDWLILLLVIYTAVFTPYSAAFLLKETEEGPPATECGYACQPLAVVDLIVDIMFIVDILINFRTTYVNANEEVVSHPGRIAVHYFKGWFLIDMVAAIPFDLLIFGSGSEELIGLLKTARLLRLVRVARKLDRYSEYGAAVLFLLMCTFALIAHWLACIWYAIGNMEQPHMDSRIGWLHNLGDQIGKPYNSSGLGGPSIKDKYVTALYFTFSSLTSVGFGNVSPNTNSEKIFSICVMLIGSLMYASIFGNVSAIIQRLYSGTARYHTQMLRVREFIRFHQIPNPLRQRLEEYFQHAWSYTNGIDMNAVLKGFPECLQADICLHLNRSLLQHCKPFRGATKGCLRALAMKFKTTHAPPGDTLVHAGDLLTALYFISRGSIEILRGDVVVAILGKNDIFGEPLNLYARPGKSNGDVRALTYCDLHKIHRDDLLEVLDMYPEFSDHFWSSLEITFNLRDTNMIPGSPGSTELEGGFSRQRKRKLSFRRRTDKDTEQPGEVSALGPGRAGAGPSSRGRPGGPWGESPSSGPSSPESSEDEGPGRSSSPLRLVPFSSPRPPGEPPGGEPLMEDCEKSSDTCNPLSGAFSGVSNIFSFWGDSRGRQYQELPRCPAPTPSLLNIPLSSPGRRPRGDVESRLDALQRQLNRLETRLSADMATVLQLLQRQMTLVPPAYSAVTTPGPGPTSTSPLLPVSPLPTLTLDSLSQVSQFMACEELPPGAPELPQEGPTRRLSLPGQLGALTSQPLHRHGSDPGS
`CCCC(=O)n1nc(-c2ccccc2)nc1SC`: the “hERG current change (%, negative = inhibition) at 1uM” value is -6.37%.
Take `COCCNC(=O)c1cnn2c(C(F)(F)F)cc(-c3ccc(C)cc3)nc12`: the “hERG current change (%, negative = inhibition) at 1uM” value stood at 3.95%.
For `C=CCC(NCc1ccco1)c1ccc(OC)cc1OC` (centres unmarked), the “hERG current change (%, negative = inhibition) at 1uM” value came to 7.78%.
To `Cc1noc(NS(=O)(=O)c2ccc(N/C=C/C(=O)c3ccc4c(c3)OCO4)cc2)c1C` belongs 4.88%.
Then `Cc1ccccc1Cc1c(C)nc2c(C(=O)NCc3ccco3)cnn2c1C`, with -9.09%.
To `Cc1ccc(C(=O)N/N=C/c2ccoc2)cc1C` belongs -0.552%; to `CSCCCNC(=S)Nc1ccc(N2CCOCC2)cc1N1CCOCC1`, 1.46%; to `CN(C)/C=N/c1c(C(=O)NCc2ccccc2)nnn1Cc1ccccc1`, -18%.
Consider `CC(CCc1ccco1)NC(=O)CCc1nnc2ccc(NCc3ccccc3Cl)nn12` (centres unmarked), for which the “hERG current change (%, negative = inhibition) at 1uM” value is recorded as 15.6%.
Turning to `Cn1cccc1/C=N/NC(=O)c1cccc(OC(F)(F)C(F)F)c1`, the “hERG current change (%, negative = inhibition) at 1uM” value was determined as 4.66%.
Consider `Cc1ccc(-n2ncc(N(C)C)c(Cl)c2=O)cc1`, for which the “hERG current change (%, negative = inhibition) at 1uM” value is given as 5.43%.
To `CN1CCN(c2ccc(NC(=O)c3ccc(C(F)(F)F)cc3)cn2)CC1` belongs -6.78%; to `Cc1cc(C(=O)C(=O)NC(C)C)c(C)n1-c1ccc([N+](=O)[O-])cc1`, 1.14%; to `Cc1cccc(OCCNc2cc(N3CCN(C)CC3)ccc2[N+](=O)[O-])c1`, 13.7%.
To `CN(C(=O)C1CCCN1S(=O)(=O)c1ccc(Cl)cc1)c1ccccc1` (centres unmarked) belongs 0.858%.
In the case of `O=C(Nc1ccccc1C(F)(F)F)c1cc(-c2cccc(O)c2)on1`, the “hERG current change (%, negative = inhibition) at 1uM” value is on record as -5.7%.
Then `COc1cccc(CN(CC(=O)NCc2ccc(F)cc2)C(=O)c2ccco2)c1`, with 7.98%; and `COc1ccc(Cc2nc3ccc(C(=O)N(C)CC4COCCO4)cc3o2)cc1` (centres unmarked), with 5.2%; and `COc1ccc(CCC(=O)NCC23CC4CC(CC(C4)C2)C3)cc1`, with 5.84%.
Then `O=C(N=C1c2ccccc2CN1c1cccc(Cl)c1)c1cccnc1`, with 7.89%; and `O=C(Cc1cccc2ccccc12)NC(NC(=S)Nc1ccccc1Cl)C(Cl)(Cl)Cl` (centres unmarked), with 9.74%; and `COC1=CC(=Cc2c(N)n3nc(CC(=O)N4CCOCC4)sc3nc2=O)C=C(OC)C1=O`, with 14.3%.
Take `CCN(CC(=O)Nc1c(F)cccc1F)C(=O)COc1ccc2c(c1)CCC2`: the “hERG current change (%, negative = inhibition) at 1uM” value amounted to 6.95%.
In the case of `CS(=O)(=O)N(CC(=O)N1CCN(c2ccccc2)CC1)C1CCCCC1`, the “hERG current change (%, negative = inhibition) at 1uM” value is on record as 12.4%.
Then `CN1C(=O)Cc2cc(S(=O)(=O)Nc3ccc(Cl)cc3)ccc21`, with 14.7%; and `COC(=O)[C@@H]1C[C@@]2(O)[C@H](O)[C@H](O)[C@H](O)C[C@H]2N1Cc1ccc(C)s1`, with 12.3%; and `CC1=CCC2C(=O)N(c3cccc(C(=O)NCc4ccccc4)c3)C(=O)C2C1` (centres unmarked), with 12.6%.
To `Cc1cccc(-n2c(-c3ccccc3)c[nH]c2=S)c1C` belongs 12.7%; to `CCN(CC(=O)Nc1c(F)cccc1F)C(=O)c1ccc2c(c1)NC(=O)C(C)S2` (centres unmarked), 3.83%; to `O=C(NCCc1ccccc1)c1cc2ncc(Br)cn2n1`, 3.21%.
Turning to `O=C(OCC(=O)N1CCCc2ccccc21)c1cc(S(=O)(=O)N2CCOCC2)ccc1Cl`, the “hERG current change (%, negative = inhibition) at 1uM” value stood at 11.9%.
Turning to `O=C(CNCc1ccc(F)cc1)Nc1ccccc1-c1ccccc1`, the “hERG current change (%, negative = inhibition) at 1uM” value is on record as 7.28%.
As for `NS(=O)(=O)c1ccc(CNC(=O)/C=C/c2cccc([N+](=O)[O-])c2)cc1`, the “hERG current change (%, negative = inhibition) at 1uM” value is given as 5.68%.
To `Cc1ccc(-c2nonc2NC(=O)c2ccco2)cc1` belongs 0.834%; to `Cn1cc(CN2CCCCC2c2ccccn2)c(-c2ccc3c(c2)OCCO3)n1` (centres unmarked), 9%; to `O=C(CSc1nc2ccccc2c(=O)n1Cc1ccccc1)NCc1ccco1`, -6.09%.
Turning to `Clc1ccc(-c2cnc3n2CCCCC3)cc1`, the “hERG current change (%, negative = inhibition) at 1uM” value is -7.48%.
On to `CCOc1ccc(C(=O)Nc2cccc3ncccc23)cc1Br`, for which the “hERG current change (%, negative = inhibition) at 1uM” value stood at 8.75%.
In the case of `CCOc1ccc(Br)cc1S(=O)(=O)N1CCCN(C)CC1`, the “hERG current change (%, negative = inhibition) at 1uM” value is recorded as 10.1%.
To `CCOC(=O)N1CCN(S(=O)(=O)c2ccc(C)c([N+](=O)[O-])c2)CC1` belongs 11.9%; to `Cc1nn2c(Nc3ccccc3)c3c(nc2c1-c1ccccc1)CCC3`, 3.9%; to `CCOC(=O)c1c(C)oc2ccc(OCC(=O)C(C)(C)C)cc12`, 16.8%.
Then `O=C(NC(=S)Nc1nc(-c2ccc(Br)cc2)cs1)c1ccco1`, with 17.7%.
In the case of `COc1cc(/C=C2\C(=O)NN(c3ccccc3)C2=O)cc([N+](=O)[O-])c1O`, the “hERG current change (%, negative = inhibition) at 1uM” value amounted to 9.39%.
To `COC(=O)c1ccc(NCCc2csc(-c3ccc(C)cc3)n2)c([N+](=O)[O-])c1` belongs 5.9%.
Then `CCCOc1cc(C)c(S(=O)(=O)N2CCOCC2)cc1C`, with 13.1%; and `CC1CN(c2ncnc3c2c(-c2ccccc2)cn3-c2ccc(F)cc2)CC(C)O1` (centres unmarked), with 6.97%; and `CN(C(=O)COC(=O)CNC(=O)c1cccs1)c1c(N)n(Cc2ccccc2)c(=O)[nH]c1=O`, with 6.15%.
Then `CCOc1ccccc1Nc1nc(N2CCCC2)nc(N2CCOCC2)n1`, with 17.2%.
Consider `COc1ccc(CCNC(=O)c2cc(-c3ccc(C)c(C)c3O)n[nH]2)cc1OC`, for which the “hERG current change (%, negative = inhibition) at 1uM” value worked out at 14.9%.
Then `C=CCOC(=O)C1=C(C)NC(SC)=C(C#N)C1c1ccc(OCC)cc1` (centres unmarked), with 9.22%.
Then `CCn1nnc(NC(=O)COc2ccc([N+](=O)[O-])cc2)n1`, with 11.1%; and `COC(=O)c1cc2ccsc2n1CC(=O)Nc1cc(Cl)ccc1OC`, with 8.46%.
In the case of `COc1cnc(-c2ccccc2)nc1Oc1cccc(C)c1`, the “hERG current change (%, negative = inhibition) at 1uM” value was 0.018%.
For the compound `CN1CCN(NC(=O)Nc2ccc([N+](=O)[O-])cc2)CC1`, the “hERG current change (%, negative = inhibition) at 1uM” value came to 8.13%.
`CCOC(=O)[C@@H]1[C@H]2COc3ccccc3[C@H]2N2C(=O)N(c3ccccc3)C(=O)[C@]12C`: the “hERG current change (%, negative = inhibition) at 1uM” value was determined as 9.44%.
